Test results published in the supplement of paper PMC11417369.
± gives the standard deviation of the averaged measurements. This is one part of the list.

system: PfAP2-I AP2 domain 3 (GST-tagged); assay: gcPBM binding intensity (ln(normalized median fluorescence intensity)); higher = stronger DNA binding
Outline: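 In this array assay, P. falciparum DNA-binding domains with a GST tag, expressed in E. coli, were applied for 1 h to primer-extended double-stranded 36-bp intergenic genomic probes and negative controls on an Agilent 4 × 180k array. Bound protein was visualised with Alexa488 anti-GST antibody at 488 nm. Binding intensity is the highest Masliner-normalised natural-log median intensity across replicate spots of either probe orientation.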

Row | Sequence | gcPBM binding intensity (ln)
1 | ATTATTATGTAGAAGGTGCTATGTTCTATAAATATA [GTGCAC_site9545] | 8.31 ± 0.35
2 | AAATATAAAAAAAAAAGTACTTTGTTACTTTTCTAT [XGTACX_site6034] | 7.35 ± 0.49
3 | TTTTTATTAAATAAAGCACACACAACAACTTTTCAC [CACACA_site9372] | 9.275 ± 0.021
4 | AACTGCAAAAAAAGACGTACAAATTATTAATTGCAA [XGTACX_site8929] | 8.13 ± 0.78
5 | TAACCATAAGAAGATTGTACATAATAAAAGTATTCT [XGTACX_site1117] | 7.67 ± 0.7
6 | AAAATAAATATAACCACACACGAAAGAGAGAGAAAA [CACACA_site3272] | 7.83 ± 0.79
7 | ATATATATATATATATGTACATACCCAATTGTGTAA [XGTACX_site6352] | 9.47 ± 0.36
8 | ATTTAAAATGGTTATACACACATAAAAGGGGAAATG [CACACA_site2649] | 8.15 ± 0.72
9 | TACAGACATACATACACACATACATATATATATATA [CACACA_site1940] | 9.27 ± 0.38
10 | ATACAAATTAAGCCTCAAGTTCTTTTTTTTAACATA [XGTACX_negctrl_site580] | 7.65 ± 0.55
11 | ATATAACATGGACACACACACATATATATATATTAT [CACACA_site6135] | 8.14 ± 0.5
12 | GGTGCACCCATATACACACACAAATACAATGATAAA [CACACA_site1132] | 9.99 ± 0.56
13 | AAAAAAAAGAATTATTGTACAAAAGAACAATAAATA [XGTACX_site1368] | 7.25 ± 0.26
14 | GTGAAATTATATTTTTGTACATATATTATATATTAT [XGTACX_site3387] | 7.76 ± 0.38
15 | ATCGAAGGGGTACAAAATAAAAATAATTCTTTCAAA [TGCATGCA_negctrl_site373] | 8.145 ± 0.035
16 | GTATATATCTAAAAATATATATATATATATATATAT [CACACA_negctrl_site788] | 9.37 ± 0.72
17 | AAGTGTTATGAAATATGTACACATATATTATATATA [XGTACX_site6022] | 7.84 ± 0.32
18 | TATAAATAAATATGGAGTACCAAAAAAATTATAAAA [XGTACX_site7581] | 7.81 ± 0.58
19 | TACAAATGAGAAATATGTACATAAAAAAAAAAAAAT [XGTACX_site801] | 7.95 ± 0.43
20 | TTGTTCTTTCAAATTATACACACCAAAAAAAAAAAA [CACACA_site3070] | 7.97 ± 0.4
21 | AATATAAATAAAAAATTGATTTCTTTAAAAAGGTAT [CACACA_negctrl_site1038] | 7.59 ± 0.64
22 | TAATCATAAAAAAATACACACATATATAATATATAT [CACACA_site1983] | 7.73 ± 0.44

Row | Sequence | gcPBM binding intensity (ln)
23 | ATACAAAATCTAATTTGTACACAATGTTTGATTTTT [XGTACX_site5438] | 7.63 ± 0.47
24 | TATCCATATTTGTTCACACACACACCCATTTATATA [CACACA_site3571] | 8.15 ± 0.76
25 | ATTTTTATGTTGAAAAGTACTTGAATCCCATGTAAC [XGTACX_site4453] | 7.91 ± 0.43
26 | TTCTTTTTTTTTAAAACAAACAAACAAACAAACAAA [CACACA_negctrl_site832] | 7.76 ± 0.59
27 | TATTTATTTATTTAGTGTACATTTATATTTGTTCAT [XGTACX_site7575] | 8.03 ± 0.4
28 | TTAATCTTTCCTACATGTACACACAGAAAAAAAAAA [XGTACX_site5213] | 8.14 ± 0.34
29 | TATAGGTAAATGGACACACACATATTTATATTTATA [CACACA_site7683] | 7.75 ± 0.53
30 | TGTAGTCTGGAGAAGAGTACATAGTATCTGGTAACA [XGTACX_site4944] | 7.58 ± 0.69
31 | ATAGAAGCATCACACTGTACATGGATGAACAGAAAA [XGTACX_site7311] | 7.64 ± 0.71
32 | TATAATATAAGGATCACACACAAACAGACATATATA [CACACA_site557] | 7.92 ± 0.56
33 | TAATGTTTTTATATCACACACAAATATTAAATGATT [CACACA_site543] | 7.72 ± 0.51
34 | TTATTAGGTGTATAATGTACATATAATATATATATA [XGTACX_site3398] | 8.93 ± 0.092
35 | TTAAAAATTATGGATACACACATATATATATATATT [CACACA_site2383] | 7.62 ± 0.4
36 | GATATTAAAATATGTAGTACACATATTATATCATAT [XGTACX_site4167] | 8.005 ± 0.064
37 | ATAGTTCCTTTTAATACACACAAAAAAAAAAACATG [CACACA_site3415] | 8.05 ± 0.42
38 | AATAAACATAAATACACACACAAAAAAAAAAACATA [CACACA_site4396] | 7.8 ± 0.27
39 | TTTTTTTTTTTTTGATGTACTAAAAAAAATGAGCCT [XGTACX_site8535] | 8.11 ± 0.63
40 | AAAAACAAAATATAATGTACACAATATATGTATATA [XGTACX_site2301] | 7.77 ± 0.17
41 | AAATATTACTACACTACATGCAGTTTTAGGTACACT [TGCATGCA_site42] | 8.05 ± 0.54
42 | AATATCTAAATAAAGTGTACTTACCTTATTAATTAT [XGTACX_site2276] | 7.79 ± 0.29
43 | CCAATACATAGAAACTGTACATTATGCATTATACAC [XGTACX_site3531] | 8.5 ± 0.42
44 | ATTAGCTACAAACAAAGGCTACCTATAGCAAGAGGG [GTGCAC_negctrl_site33] | 8.1 ± 0.69

Row | Sequence | gcPBM binding intensity (ln)
45 | TATATATATACATACATACACACATATATATATATA [CACACA_site4109] | 9.26 ± 0.47
46 | ATAATTTCTTTTACATGTACAAAATTTGCTTATATG [XGTACX_site5388] | 7.85 ± 0.61
47 | ATATATATAATGTGAAGTACATTTTGTTTACATATT [XGTACX_site8405] | 8.38 ± 0.6
48 | TAATTTATGGAATATGTGCACTTGCTGATCACTTTT [GTGCAC_site9843] | 9.93 ± 0.12
49 | TTTATTAAATAATCTCTTTTTATTACATAATAATAA [XGTACX_negctrl_site382] | 7.34 ± 0.35
50 | TTTACACTTTCCAATAGTACATATTAGAATAATTCT [XGTACX_site7734] | 7.75 ± 0.57
51 | GGATTATTTATAGGAGTGCATACATATATATATATA [GTGCAC_site9454] | 9.76 ± 0.071
52 | TTTTTGTTTCATAAATGTACAAAAACAAACATATTT [XGTACX_site5281] | 7.68 ± 0.28
53 | TCGTCTCAATAATTATAATAAAAAAATTCCTAAGTC [CACACA_negctrl_site338] | 7.62 ± 0.35
54 | ATTTTCCTATTTAGTAGTACTTTTTTCTTTTTTTAA [XGTACX_site5260] | 8.04 ± 0.59
55 | ATTATATTTATTAATATGTATATTTAATTATATTTA [XGTACX_negctrl_site376] | 7.32 ± 0.26
56 | TTTCATCTCGTCATTTCTTATATAACTATTTTATAC [CACACA_negctrl_site813] | 7.83 ± 0.74
57 | ATTATTGTTTATTGATTTTTGTTAAAATAGGAAATT [GTGCAC_negctrl_site181] | 7.61 ± 0.48
58 | TTCTTTATTATATGCACACGTACATAAAATATATAT [CACACA_site5157] | 9.72 ± 0.14
59 | AAGTGTAAAAGTTACACACACAAACTTGTCATTTTT [CACACA_site4614] | 7.54 ± 0.53
60 | CAAATTTTTTATTAAACACACAAACATATATATATA [CACACA_site5122] | 9.19 ± 0.33
61 | ATTTTTTTTTTTTTTTGTACGAATAATATGTATGAA [XGTACX_site5318] | 7.76 ± 0.11
62 | TATAAAAAATATATATATAATATTATATATATATAT [TGCATGCA_negctrl_site260] | 9.03 ± 0.092
63 | AAAGGAGGGAATTTTTCTAGGTGTGGAGTGCTACTC [XGTACX_negctrl_site63] | 7.91 ± 0.64
64 | AAGAAAAGAAACAAAAAAAAAAAGAAATAAAAGGAA [TGCATGCA_negctrl_site171] | 7.66 ± 0.57
65 | TTATTATCATCAAATCAAAAAATTCTTTTACCTGTT [CACACA_negctrl_site1348] | 7.42 ± 0.67
66 | TATATATATATATGTAGTACCTATAATATTAAATAC [XGTACX_site6118] | 9.17 ± 0.18

Row | Sequence | gcPBM binding intensity (ln)
67 | TATGAATGGTTAAGTACACACATATTAATATAGGTA [CACACA_site7606] | 7.79 ± 0.49
68 | ATCAATAAATAAAATGTGCACATAATATATTAATAC | 9.77 ± 0.57
69 | AATTTTTTTTTTTTTTTTTTTTATATATGTGTGTGT [XGTACX_negctrl_site129] | 7.59 ± 0.28
70 | CTTATAAATAAAAGAAGTACATGTTAGTTCAAGTTA [XGTACX_site4183] | 7.71 ± 0.44
71 | TTGAAGAAAAAAAAATGTACATAAAAAATATATATG [XGTACX_site428] | 7.96 ± 0.53
72 | GTATATGAATGTTCATGTACATAATAAAATATATAA [XGTACX_site250] | 7.82 ± 0.54
73 | AAATTAAAATATAATACACACATAAAAAAAAAATCA [CACACA_site5918] | 7.68 ± 0.61
74 | ATAAAATATAAAAACGCACACAATTATAAGGGTGTA [CACACA_site177] | 7.95 ± 0.35
75 | ATATATATATATAAAGTGCAAAAATGAAAGTAAGAC [GTGCAC_site9850] | 10.4 ± 0.21
76 | ATGTTCTATAAATATGAACACACGACATATTATTTA [CACACA_site1799] | 7.63 ± 0.47
77 | ATATATATATATATATGTACATATTATTCTCATTGT [XGTACX_site6259] | 9.24 ± 0.3
78 | TATATTTAATTACATGAACACACATTATATATTTTT [CACACA_site8969] | 7.62 ± 0.35
79 | TGTAGTATCAATTTTTGTACATAACACATATGTATA [XGTACX_site613] | 7.66 ± 0.5
80 | AAAACAAACACATTTACACACATAAATAAATCAATT [CACACA_site4122] | 7.8 ± 0.3
81 | TTTATTTTTCCATATGCACACACACCGTATATATAA [CACACA_site8293] | 9.22 ± 0.19
82 | ATACATACATACATACGTACATATGTATATATATAT [XGTACX_site8498] | 8.88 ± 0.44
83 | TATTCATTCTATAAAACACACAAATATTTTTGTATC [CACACA_site666] | 7.66 ± 0.49
84 | AAAATATAAATATATTTGAACATGGATCAAATGTAA [GTGCAC_negctrl_site626] | 7.29 ± 0.54
85 | AAAAAAAAATAGAAATGTACAAATTGTAATAATTCC [XGTACX_site6182] | 7.47 ± 0.73
86 | CATATGATATTATTTTGTACTTATTACAAATATGAA [XGTACX_site7929] | 7.63 ± 0.26
87 | GAGCATTACACATATACACACATATATATAAACATA [CACACA_site5515] | 8.2 ± 0.45
88 | TATAATAATATTTATTGTACGATTAGATTAATTCAT [XGTACX_site612] | 7.46 ± 0.54
